The labels stand for the following.
B1: CPEB3 Ribozyme (parent)
chain: UAACAGGGGGCCACAGCAGAAGCGUUCACGUCGCAGCCCCUGUCAGAUUCUGGUGAAUCUGCGAAUUCUGCUGUAUAUCUC

The source gives no read counts; variants with many changes may rest on few reads.

In the data set the parent is B1. The data set can be described thus: self-cleavage, relative activity (ratio to wild type); higher = more cleavage; in vitro, sequencing. The procedure, abridged:
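For each CPEB3 ribozyme variant, relative activity is its cleaved/total read fraction divided by the unmutated ribozyme's. Barcoded error-prone PCR libraries were transcribed by T7 RNA polymerase (5 hours, 37°C) and held in DNase I for 15 min before an EDTA stop, with cleavage occurring throughout. Template-switching reverse transcription and Illumina sequencing were used to read the RNAs. A 5-read minimum applied, and results are the mean of three batches.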
UAACAGGGGGCCACAGUAGAAGCGUUCACGUCGCAGCCCCUGUCAGAUUCUGGUGAAUCUGCGAACUCGGCUGUAUAUCUC [C17U U66C U69G]: the self-cleavage came to 0.12.

UAACAGGGGGCCACAGUAGAAGCGUUCACGUCGCAGCCCCUGUCAGAUCCUGGAGAAUCUGCGAAUUCUGCUGUAUAUCUC [C17U U49C U54A]: the self-cleavage came out at 0.14.

Consider UAACAGGGGGCCACAGUAGAAGCGUACACGUCGCAGCCCCUGUCAGAUUCUGAUGAAUCUGCGAGUUCUGCUGUAUAUCUC [C17U U26A G53A A65G], for which the self-cleavage turned out to be 0.19.

Regarding UAACAGGGGGCCACAGUAGAAGCGUUCACGUCGCAGCCCCUGUCAGAUCCUGGUGAAUCUGCGAAUCCUGCUGUAUACCUC [C17U U49C U67C U78C], the self-cleavage was 0.08.

Regarding UAACAGGGGGCCACAGUAGAAGCGUCCACGUCGCAGCCCCUGUCUGAUUCUGGCGAAUCUGCGAAUUCUGCUGUAUAUCUC [C17U U26C A45U U54C], the self-cleavage is 0.11.

For UAACAGGGGGCCACAGUAGAAGCGUUCACGUCGCAGCCCCUGUCAGAUUCUGGCGAAUCUGCGAAUUCUGCUGUAUAUCUA [C17U U54C C81A], the self-cleavage worked out at 1.17.

For UAACAGGGGGCCACAGUAGAAGCGUUCACGUCGCAGCCCCUGUCAGAUUCUGGUGAAUCUGCGAAUUCUGCCGUAUAUCGC [C17U U72C U80G], the self-cleavage came to 0.45.

With UAACAGGGGGCCACAGUAGAAGCGUCCACGUCGCUGCCCCUGUCAGAUCCUGGUGAACCUGCGAAUUCUGCUGUAUAUCUC [C17U U26C A35U U49C U58C], the self-cleavage came out at 0.02.

As for UAACAGGGGGCCACAGUAGAAGCGUUCACGUCGCAGCCCCUGUCAGAUUCUGGUGAACCUGCGAAUUCUGCUGUUUAUCUC [C17U U58C A75U], the self-cleavage was determined as 0.35.

As for UAACAGGGGGCCACAGUAGAAGCGUUCACGUCGCAGCCCCUGUCAGAUUCUGGUGAAUCUGCGAAUUCUGCAGUAUAUCAC [C17U U72A U80A], the self-cleavage is 0.24.

UAACAGGGGGCCACAGCCGGAGCGUACACGUCGCAGCCCCUGCCAGAUUCUGGUGAAUCUGCGAAUUCUGCUGUAUAUCUC [A18C A20G U26A U43C]: the self-cleavage is 0.39.

With UAACAGGGGGCCACAGUAGAAGCGUUCACGUCGCAGCCCCGGUCAGAUUCUGGUGAAUCUGCGAAUCCUGCUGUAUAUCUC [C17U U41G U67C], the self-cleavage was 0.17.

For the variant UAACAGGGGGCCACAGUAGAAGCGUCCACGUCGCAGCCCCUGUCAGAUUCUGGUGAACCUGCGAAUCCUGCCGUAUAUCUC [C17U U26C U58C U67C U72C], the self-cleavage amounted to 0.11.

Take UAACAGGGGGCCACAGUAGAAGCGUUCACGUCGCAGCCCCAGUCAGAUCCUGGUGAAUCUGCGAAUUCUGCUGUAUAUCAC [C17U U41A U49C U80A]: the self-cleavage turned out to be 0.25.

UAACAGGGGGCCACAGUAGAAGCGUUCACGUCGCAGCCCCUGUCAGAUUCUGGCGAAUCUGCGGAUUCUGCUGUAUAUCUC [C17U U54C A64G]: the self-cleavage was determined as 0.22.

Regarding UAACAGGGGGCCACAGUAGAAGCGUUCACGUCGCAGCCCCAGACAGAUUCUGGUGAAUCUGCGAAUUCUGCAGUAUAUCUC [C17U U41A U43A U72A], the self-cleavage was 0.07.

For the variant UAACAGGGGGCCACAGUAGAAGCGUUCACGUCGCAGCCCCCGUGGGAUUCUGGUGAAUCUGCGAGUUCUGCUGCAUAUCUC [C17U U41C C44G A45G A65G U74C], the self-cleavage was determined as 0.07.

For UAACAGGGGGCCACAGUAGAAGCGUUCACGUCGCAGCCCCUGUCAGAUUCAGGUGAAUCUGCGAAUUCUGCUGUAUUUCUC [C17U U51A A77U], the self-cleavage was determined as 0.7.

In the case of UAACAGGGGGCCACAGUAGAAGCGUUCACGUCGCAGCCCCUGUCAGAUUCUGGUGAAUCCGCGAAUUCUGCUGUAUACCUC [C17U U60C U78C], the self-cleavage was determined as 0.15.

On to UAACAGGGGGCCACAGUAGAAGCGUUCACGCCGCAGCCCCUGUCAGAUUCUGGUGAAUCUGCGAGUUCUGCCGCAUAUCUC [C17U U31C A65G U72C U74C], for which the self-cleavage came out at 0.13.

In the case of UAACAGGGGGCCACAGUAGAAGCGUUCACGUCGCAGCCCCCGUCAGAUUCUGGUGAGUCUGCGAAUUCAGCCGUAUAUCUC [C17U U41C A57G U69A U72C], the self-cleavage was determined as 0.18.

UAACAGGGGGCCACAGUAGAAGCGUUCACGUCGCAGCCCCUGUCAGAUUCUGGUGAAUCUGCGAAUUCUGCUGUACAUCCC [C17U U76C U80C]: the self-cleavage amounted to 1.14.

For UAACAGGGGGCCACAGCCGAGGCGUUCACGUCGCAGCCCCUGUCAGAUUCUGGUGAACCUGCGAAUUCUGCUGUAUAUCUC [A18C A21G U58C], the self-cleavage worked out at 0.16.

In the case of UAACAGGGGGCCACAGUAGAAGCGUUCACGUCGCAGCCCCUGUCAGACUCUGGUGAAUCUGCGGAUUCUGCUGAAUAUCUC [C17U U48C A64G U74A], the self-cleavage was 0.23.

With UAACAGGGGGCCACAGUAGAAGCGUUCACGUCGCAGCCCCUGUCAGAUUCUGGAGAAUCUGCGAAUCCUGCUGUAUAUCUC [C17U U54A U67C], the self-cleavage was 0.1.

UAACAGGGGGCCACAGUAGAAGCGUUCACGUCGCAGCCCCCCUCAGAUUCUGGUGAAUCUGCGAAUUCUGCUGUAUAUCUC [C17U U41C G42C]: the self-cleavage came out at 0.21.

Consider UAACAGGGGGCCACAGUAGAAGCGUUCACGUCGCAGCCCCUGCCAGGUUCUGGUGGAUCUGCGAAUUCUGCUGUAUAUCUC [C17U U43C A47G A56G], for which the self-cleavage came out at 0.15.

As for UAACAGGGGGCCACAGCCGUAGCGUUCACGUCGCAGCCCCUGUCAGAUUCUGGUGAAUCUGCGAGUUCUGCUGUAUAUCUC [A18C A20U A65G], the self-cleavage worked out at 0.28.

With UAACAGGGGGCCACAGUAGAAGCGUUCACGUCGCAGCCCCUGUCAGACUCUGACGAAUCUGCGAAUUCUGCUGUAUAUCUC [C17U U48C G53A U54C], the self-cleavage stood at 0.18.

Consider UAACAGGGGGCCACAGUAGAAGCGUUCACGUCGCAGCCCCAGUCAGACUCAGGUGAAUCUGCGAGUUCUGCCGUAUAUCUC [C17U U41A U48C U51A A65G U72C], for which the self-cleavage turned out to be 0.07.

With UAACAGGGGGCCACAGUAGAAGCGUUCACGCCGCAGCCCCUGUCAGGUUCUGGUGAAUCUGCGAAUUCUGCUGUAUAUCUC [C17U U31C A47G], the self-cleavage was 0.45.

Regarding UAACAGGGGGCCACAGUAGAAGCGUUCACGUCGCAGCCCCUGUCAGAUUCAGGUGAAUCUGCGAACUCUGCUGUAUAUCUC [C17U U51A U66C], the self-cleavage was found to be 0.31.

As for UAACAGGGGGCCACAGUAGAAGCGUUCACGUCGCAGCCCCUGUCAGACUCUGGUGAAUCUGCGAAUUCGGCUGUAUAUCAC [C17U U48C U69G U80A], the self-cleavage worked out at 0.07.

Consider UAACAGGGGGCCACAGUAGAAGCGUUCACGUCGCAGCCCCUGCCGGAUUCUGGUGAAUUUGCGAAUUCAGCUGUAUAUCUC [C17U U43C A45G C59U U69A], for which the self-cleavage was found to be 0.23.

The values are drawn from the RNAGym collection of RNA variant scans (doi:10.1093/nar/gkz1192).
